{
  "source": "PubChem BioAssay AID686978",
  "about": "(National Center for Advancing Translational Sciences (NCATS), 2013)",
  "note": "Values joined by “and” are separate entries in the source; they are usually repeats but may differ in a detail not shown here. Equal values may be shown once. The campaign covered roughly 420,000 compounds. About 64,000 (15%) were called active. Inconclusive means that the source gave no clear call. Such entries were picked first, then a sample of the others. The call rests on the fitted dose curve; in most records, active means well fitted inhibition curve with a large enough effect; inconclusive means small, poorly fitted or top-dose-only effect; inactive means flat fitted curve, though single readings scatter. A potency beside an inconclusive call is a rough fit, not a confirmed value. On the % scale 0 is the no-effect control and ±100 the full control effect; potency means the concentration at half of the fitted maximal effect; tags describe the fitted curve by direction and shape.",
  "data": [
    {"assay": "qHTS for Inhibitors of human tyrosyl-DNA phosphodiesterase 1 (TDP1): qHTS in cells in absence of CPT; further: nearly all actives have a fitted effect of over 55% in size", "conditions": "DT40 Tdp1-/- hTDP1 cells, no CPT, ATP luminescence, 48 h; activity change, negative = growth inhibition: at 46.2 µM (top of the series) unless noted", "method_in_brief": "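Camptothecin absent (DMSO only). Human TDP1-complemented DT40 knockout cells, 400 cells/well, 37 °C for minimum 48 hr; ATP measured via CellTiter-Glo, 30 min dark incubation, luminescence.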", "values": [
      {"smiles": "COc1ccc(/C=C2\\CCCC3C2=NN(C(=O)c2scnc2C)C3c2ccc(OC)c(OC)c2)cc1OC", "note": "(stereo not drawn)", "Potency": "inconclusive: 35.5 µM [inhibitor, single point]"},
      {"smiles": "COc1ccccc1[C@H]1C(c2cccc(C)c2)=NN(c2ccccc2)[C@@H]1CO", "Potency": "inconclusive: 23.1 µM [inhibitor, single point]"},
      {"smiles": "O=C(c1ccccc1)N1CCN(C(=O)N2CCOCC2)CC1", "activity change, negative = growth inhibition": "inactive: 2.35%"},
      {"smiles": "N#CC1=C(S)N(c2ccccc2)C(c2ccco2)NC1=O", "note": "(stereo not drawn)", "activity change, negative = growth inhibition": "inactive: -5.52%"},
      {"smiles": "CCc1ccc(-c2csc(NC(=O)c3cccnc3)n2)cc1", "Potency": "active: 16.4 µM"},
      {"smiles": "C[C@@H]1CN([C@@H](C)CO)C(=O)c2cccc(NC(=O)c3nc4ccccc4s3)c2O[C@@H]1CN(C)CC1CC1", "Potency": "inconclusive: 25.9 µM [inhibitor, single point]"},
      {"smiles": "C=CCNc1nc2c3ccccc3n(C(C)=O)c2s1", "Potency": "inconclusive: 16.4 µM [inhibitor, partial curve]"},
      {"smiles": "CCN1CCN(c2cc(C)c3cc(NC(=O)c4cc(Cl)ccc4OC)ccc3n2)CC1", "Potency": "active: 4.11 µM"},
      {"smiles": "Cc1ccc(S(=O)(=O)N2CCN(C(=O)CCC(=O)NC3CCCc4ccccc43)CC2)cc1", "note": "(stereo not drawn)", "activity change, negative = growth inhibition": "inactive: -21.4%"},
      {"smiles": "C[C@@H]1CCCCO[C@@H](CN(C)S(=O)(=O)c2cccs2)[C@@H](C)CN([C@H](C)CO)C(=O)c2cc(NS(=O)(=O)c3ccccc3)ccc2O1", "Potency": "active: 8.2 µM"},
      {"smiles": "Cc1cc(N2CCCC2)ccc1NC(=O)COc1cccc(C(F)(F)F)c1", "Potency": "active: 4.61 µM"},
      {"smiles": "Cc1onc(-c2ccccc2Cl)c1C(=O)Nc1ccccc1", "Potency": "inconclusive: 11.6 µM [inhibitor, partial curve]"},
      {"smiles": "COc1ccc(C2=NC(C)(C)N(CC(=O)Nc3ccc(F)c(F)c3)C2=O)cc1", "Potency": "inconclusive: 16.4 µM [inhibitor, partial curve]"},
      {"smiles": "COc1ccc(S(=O)(=O)N2CCOCC2)cc1NC(=O)CSc1nnc2c(n1)[nH]c1ccccc12", "Potency": "inconclusive: 18.4 µM [inhibitor, single point]"},
      {"smiles": "O=C1NNC(c2ccccc2)=N/C1=C\\c1ccc(Cl)cc1", "activity change, negative = growth inhibition": "inconclusive: -31.6% [inhibitor]"},
      {"smiles": "COc1ccc(-c2cc(C(F)(F)F)n3nc(C(=O)NCCN4CCOCC4)cc3n2)cc1", "Potency": "inconclusive: 29.1 µM [inhibitor, single point]"},
      {"smiles": "CCc1nc2c(OCc3ccc(F)c(F)c3)cccn2c1N(C)C(=O)CC(C)C", "Potency": "inconclusive: 16.4 µM [inhibitor, single point]"},
      {"smiles": "CCOc1ccc(Nc2nc(N3CCCC3)nc(N3CCN(c4ccc(OC)cc4)CC3)n2)cc1", "Potency": "active: 16.4 µM"},
      {"smiles": "CCCCCCCCN1[C@@H](CC(=O)OCC)c2cc(F)ccc2S1(=O)=O", "Potency": "inconclusive: 20 µM [inhibitor, single point] and inconclusive: 23.1 µM [inhibitor, single point]"},
      {"smiles": "O=C(Nc1ccn(Cc2ccccc2)n1)c1cccc(Cn2cc([N+](=O)[O-])cn2)c1", "Potency": "inconclusive: 10.3 µM [inhibitor, partial curve, poor fit]"},
      {"smiles": "COC(=O)CN1C(=O)[C@H]2[C@@H](C3CC3)N3C(=O)CN(Cc4ccc(-c5ccccc5)cc4)C(=O)[C@@]3(Cc3ccccc3)[C@H]2C1=O", "Potency": "inconclusive: 18.4 µM [inhibitor, partial curve]"},
      {"smiles": "COc1c(C)cccc1C(=O)Nc1ccc(N2CCN(C(=O)c3ccccc3C)CC2)cc1", "Potency": "active: 14.6 µM"},
      {"smiles": "CC(C)C[C@@H]1O[C@H](C(C)C)Cc2[nH][nH]c(=O)c21", "Potency": "inconclusive: 18.4 µM [inhibitor, single point]"},
      {"smiles": "Cc1ccc(OCC(O)Cn2c(=N)n(CCN3CCCCC3)c3ccccc32)cc1", "note": "(stereo not drawn)", "Potency": "active: 4.61 µM and active: 23.1 µM"},
      {"smiles": "CCOC(=O)c1c(C)n(-c2ccccc2)c2ccc(OC(=O)c3ccccc3NC(=O)C(C)(C)C)cc12", "Potency": "active: 11.6 µM"},
      {"smiles": "CC(CCc1ccccc1)NC(=O)CN1CCN(Cc2ccccc2)C1=O", "note": "(stereo not drawn)", "Potency": "inconclusive: 35.5 µM [inhibitor, single point]"},
      {"smiles": "O=C(/C=C/c1ccccc1)NC(=S)Nc1ccc(N2CCOCC2)c(Cl)c1", "Potency": "inconclusive: 16.4 µM [inhibitor, single point]"},
      {"smiles": "CC(=O)N1CCOc2ccc(S(=O)(=O)NCCc3ccccc3)cc21", "activity change, negative = growth inhibition": "inactive: -19.7%"},
      {"smiles": "NC(=O)c1cc(C(=O)c2ccc(Cl)cc2)c[nH]1", "Potency": "inconclusive: 16.4 µM [inhibitor, single point]"},
      {"smiles": "CCOc1ccc(CC(=O)Nc2ccc(S(=O)(=O)N3CCCC3)cc2)cc1", "Potency": "active: 14.6 µM"},
      {"smiles": "CC1=C(C#N)C(/C=N/OCc2ccc(F)cc2Cl)CC(=O)N1", "note": "(stereo not drawn)", "Potency": "inconclusive: 16.4 µM [inhibitor, partial curve]"},
      {"smiles": "COc1ccc(S(=O)(=O)N(CC(=O)N2CCN(C)CC2)c2ccc(C)cc2)cc1Br", "activity change, negative = growth inhibition": "inactive: -5.65%"},
      {"smiles": "COc1ccc(CNC(=O)CNC(=O)CNS(=O)(=O)c2ccc(C)c(C)c2)cc1", "activity change, negative = growth inhibition": "inactive: 8.13%"},
      {"smiles": "C[C@]12c3[nH]c4cc(-c5ccco5)ccc4c3CCN1C(=O)[C@@H](CC(=O)NCc1ccco1)C[C@@H]2C(=O)N1CCOCC1", "Potency": "inconclusive: 18.4 µM [inhibitor, single point]"},
      {"smiles": "CCCn1nnnc1NC(=O)CSc1ccc(Cl)cc1", "Potency": "inconclusive: 23.1 µM [inhibitor, single point]"},
      {"smiles": "C/C(=N\\NC(=O)c1cc(Br)ccc1O)c1ccccn1", "Potency": "active: 3.66 µM"},
      {"smiles": "Cn1cc(-c2csc(C(C)(O)c3cccc(F)c3)n2)cn1", "note": "(stereo not drawn)", "activity change, negative = growth inhibition": "inactive: -12.2%"},
      {"smiles": "COc1ccccc1/C=C/C=N/NC(=O)CN1CCN(S(=O)(=O)c2ccc(C)cc2)CC1", "Potency": "inconclusive: 9.2 µM [inhibitor, partial curve]"},
      {"smiles": "CC(C)C1=NN(C(=O)c2cccnc2)C(O)(C(F)(F)F)C1", "note": "(stereo not drawn)", "Potency": "inconclusive: 29.1 µM [inhibitor, single point]"},
      {"smiles": "COc1cc(S(=O)(=O)NCc2ccncc2)c(OC)cc1Cl", "Potency": "inconclusive: 13 µM [inhibitor, partial curve]"},
      {"smiles": "O=S(=O)(NCc1ccncc1)c1ccccc1", "Potency": "active: 8.2 µM"},
      {"smiles": "CCc1ccc(S(=O)(=O)c2cn(CC)c3cc(N4CCOCC4)c(F)cc3c2=O)cc1", "Potency": "inconclusive: 18.4 µM [inhibitor, single point]"},
      {"smiles": "O=C(COC(=O)c1ccccc1NCCO)NCCC1=CCCCC1", "activity change, negative = growth inhibition": "inconclusive: -33.2% [inhibitor]"},
      {"smiles": "Cc1[nH]c2ccccc2c1/C=C(/C#N)C(=O)NC(C)C", "activity change, negative = growth inhibition": "inactive: -9.84%"},
      {"smiles": "CC(=O)c1ccc(NC(=O)Cn2cc3c(n2)CCCC3)cc1", "activity change, negative = growth inhibition": "inactive: 0.0481%"},
      {"smiles": "CC(C)C(=O)N1CCCC1(C)C(=O)Nc1ccccc1", "note": "(stereo not drawn)", "activity change, negative = growth inhibition": "inactive: 7.04%"},
      {"smiles": "CCOC(=O)Cn1cnc2sc3c(c2c1=O)CCC3", "activity change, negative = growth inhibition": "inactive: -3.33%"},
      {"smiles": "CCN(CC)CCN1C(=O)c2ccccc2NC1c1ccc(Br)cc1", "note": "(stereo not drawn)", "Potency": "inconclusive: 25.9 µM [inhibitor, single point]"},
      {"smiles": "COc1ccc(C)cc1-n1c(SCC(=O)Nc2cc(C)on2)nc2sc(C)c(C)c2c1=O", "Potency": "active: 8.2 µM"},
      {"smiles": "Cc1ccc(S(=O)(=O)N2CC(=O)Nc3ccccc32)cc1C", "activity change, negative = growth inhibition": "inactive: -3.91%"},
      {"smiles": "O=C(O)c1cc(-c2ccc(C(F)(F)F)cc2)nc2n[nH]c(-c3ccccc3)c12", "activity change, negative = growth inhibition": "inactive: 25.8%"},
      {"smiles": "O=C(/C=C/c1ccc(F)cc1)N1CCN(Cc2ccccc2)CC1", "Potency": "inconclusive: 10.3 µM [inhibitor, partial curve, poor fit]"},
      {"smiles": "CC(=O)c1cccc(NC(=O)CCNS(=O)(=O)c2cccc3nsnc23)c1", "Potency": "inconclusive: 18.4 µM [inhibitor, partial curve, poor fit]"},
      {"smiles": "COc1ccccc1C(=O)Nc1nnc(S(=O)(=O)N(C)c2ccc(Cl)cc2)s1", "Potency": "inconclusive: 29.1 µM [inhibitor, single point]"},
      {"smiles": "COc1ccc(/C=C(\\C#N)C(=O)NCc2cccs2)cc1OC", "activity change, negative = growth inhibition": "inconclusive: -31.3% [inhibitor]"},
      {"smiles": "Cc1ccsc1C(=O)Nc1n[nH]c(C(F)(F)F)n1", "Potency": "inconclusive: 29.1 µM [inhibitor, single point]"},
      {"smiles": "CCN(CC)CCN1C(=O)C2C3c4ccccc4C(c4ccccc43)C2C1=O", "note": "(stereo not drawn)", "Potency": "inconclusive: 25.9 µM [inhibitor, single point]"},
      {"smiles": "COc1ccc(N2CC(C(=O)Nc3nc(-c4ccccc4)c(C(C)=O)s3)CC2=O)c(OC)c1", "note": "(stereo not drawn)", "Potency": "inconclusive: 18.4 µM [inhibitor, partial curve, poor fit]"},
      {"smiles": "O=C1NC(c2ccccc2Cl)Nc2ccccc21", "note": "(stereo not drawn)", "Potency": "active: 18.4 µM"},
      {"smiles": "C/C(=C/C=N/Nc1nc(N2CCCCC2)nc(N2CCCCC2)n1)c1ccccc1", "Potency": "inconclusive: 14.6 µM [inhibitor, single point]"},
      {"smiles": "Cn1nc(C(=O)NC2CCCCC2)c2c1-c1ccccc1SC2", "Potency": "inconclusive: 29.1 µM [inhibitor, single point]"},
      {"smiles": "O=C(O)c1cc2nc(-c3cccs3)cc(C(F)(F)F)n2n1", "activity change, negative = growth inhibition": "inactive: -5.95%"},
      {"smiles": "CCOc1ccc(N/C=C/C(=O)c2ccc3ccccc3c2)c([N+](=O)[O-])c1", "Potency": "inconclusive: 13 µM [inhibitor, partial curve]"},
      {"smiles": "CCOc1ccc(CN2CCN(c3ncnc4sc5c(c34)CC(C)CC5)CC2)cc1", "note": "(stereo not drawn)", "Potency": "inconclusive: 2.91 µM [inhibitor, single point]"},
      {"smiles": "COc1cc(Cl)c(CC(=O)c2c[nH]c3ccccc23)cc1OC", "Potency": "inconclusive: 11.6 µM [inhibitor, partial curve]"},
      {"smiles": "Cc1ccc(N2CC(NC(=O)N3CCN(C(=O)c4ccco4)CC3)CC2=O)cc1", "note": "(stereo not drawn)", "activity change, negative = growth inhibition": "inactive: 2.65%"},
      {"smiles": "COCc1cc(C)nc(SCC[N+](C)(C)CC(=O)Nc2cccc(C(F)(F)F)c2)c1C#N", "Potency": "inconclusive: 29.1 µM [inhibitor, single point]"},
      {"smiles": "COc1ccc(C(=O)Nc2ccc(N3CCCC3)cc2)cc1OC", "Potency": "inconclusive: 10.3 µM [inhibitor, partial curve]"}
    ]}
  ]
}
